# Out of some 310,000 compounds screened, about 14,000 (4.5%) showed an effect of 50% or more. The effect is printed as a negative number. The list shows a part of the results.
# Biological target: human ether-à-go-go-related gene (hERG) potassium channel (human, UniProt Q12809)
# Experiment: primary screen, population patch clamp on CHO cells stably expressing hERG
# 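Also: peak tail current of the secondary pulse compared with the same well before compound.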
# Chain of human ether-à-go-go-related gene (hERG) potassium channel (Q12809 whole entry, looked up): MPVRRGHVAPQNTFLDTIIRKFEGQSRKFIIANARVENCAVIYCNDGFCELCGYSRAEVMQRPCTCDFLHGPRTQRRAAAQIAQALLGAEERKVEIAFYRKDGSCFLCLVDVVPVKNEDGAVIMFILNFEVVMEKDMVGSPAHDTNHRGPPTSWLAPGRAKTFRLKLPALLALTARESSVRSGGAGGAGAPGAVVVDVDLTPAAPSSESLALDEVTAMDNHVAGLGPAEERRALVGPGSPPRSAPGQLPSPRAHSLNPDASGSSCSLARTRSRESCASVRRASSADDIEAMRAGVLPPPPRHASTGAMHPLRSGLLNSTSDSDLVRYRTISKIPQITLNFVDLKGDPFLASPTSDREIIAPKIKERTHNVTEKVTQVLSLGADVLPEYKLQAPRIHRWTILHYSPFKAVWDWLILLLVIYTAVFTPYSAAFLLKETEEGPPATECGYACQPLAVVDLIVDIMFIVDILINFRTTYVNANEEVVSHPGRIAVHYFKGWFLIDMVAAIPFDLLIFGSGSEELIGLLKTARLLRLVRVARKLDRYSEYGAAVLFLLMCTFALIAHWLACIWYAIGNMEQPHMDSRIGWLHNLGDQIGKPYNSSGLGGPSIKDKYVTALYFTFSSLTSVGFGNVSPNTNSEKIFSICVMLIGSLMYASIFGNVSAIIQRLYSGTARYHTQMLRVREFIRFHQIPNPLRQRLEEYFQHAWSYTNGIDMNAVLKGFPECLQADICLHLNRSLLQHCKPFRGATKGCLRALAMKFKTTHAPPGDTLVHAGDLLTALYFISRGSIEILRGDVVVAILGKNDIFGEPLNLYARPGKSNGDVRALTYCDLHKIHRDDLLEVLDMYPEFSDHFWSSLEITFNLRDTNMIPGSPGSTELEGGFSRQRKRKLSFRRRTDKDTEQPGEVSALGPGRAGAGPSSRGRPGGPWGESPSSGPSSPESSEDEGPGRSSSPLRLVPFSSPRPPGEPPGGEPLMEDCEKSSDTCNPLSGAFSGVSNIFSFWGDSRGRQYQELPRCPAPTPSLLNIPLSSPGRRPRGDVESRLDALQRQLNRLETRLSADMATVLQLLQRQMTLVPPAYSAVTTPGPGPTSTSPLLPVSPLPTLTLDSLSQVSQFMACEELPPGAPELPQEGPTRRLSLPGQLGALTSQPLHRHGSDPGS
row,Compound,"hERG current change (%, negative = inhibition) at 10uM"
1,CN(C)C(CNC(=O)c1ccc(S(=O)(=O)N(C)C)cc1)Cc1ccccc1 (centres unmarked),8.37%
2,NC(=O)C1=C[C@H](c2ccc(C(F)(F)F)cc2)C[C@H](OCc2ccc(CO)cc2)O1,-1.13%
3,COc1cc(C(=O)Nc2cccc(NC(=O)c3ccccc3)c2)cc(OC)c1OC,-18.4%
4,COC(=O)C1=C(C)NC(C)=C(C(=O)OC)C1c1ccc(-c2cccc(Cl)c2Cl)o1,7.22%
5,CCOc1nc(-c2ccc(OC)cc2)ccc1-c1noc(C)n1,-2.61%
6,Fc1ccc(CSc2nnc(-c3ccccn3)o2)cc1,-6.76%
7,Cc1cccc(NC(=S)NNC(=O)c2ccccc2Br)c1,14.8%
8,CN(CCNC(=O)C1CCCN(c2ncnc3c2nc2n3CCCCC2)C1)Cc1ccccc1 (centres unmarked),-29.1%
9,O=C(NCCO)c1cc(-c2cc(C(=O)NCCO)c3ccccc3n2)nc2ccccc12,17.4%
10,Cl.ClCCN1C2=NCCCN2c2ccccc21,-26.4%
11,Cc1cccc(NC(=O)CCC(=O)N/N=C/c2ccncc2)c1,7.94%
12,O=C(O)CNS(=O)(=O)/C=C/c1ccccc1,11.4%
13,COc1ccc(CSc2nnc(CNS(C)(=O)=O)o2)cc1,11.3%
14,C=CCN1C=C2C(=O)C(C)(OC(=O)C3CCCC3)C(=O)C(c3ccccc3)=C2C=C1CCCC(=O)OC (centres unmarked),-14.5%
15,NS(=O)(=O)c1ccc(NC(=S)NNC(=O)CCC(=O)Nc2ccccc2Cl)cc1,5.62%
16,Clc1ccc(-c2nnc(NCc3ccccc3)c3ccccc23)cc1,-13.3%
17,Cc1ccc(OCC(=O)N/N=C/c2c[nH]c3ccccc23)c([N+](=O)[O-])c1,-2.63%
18,COC(=O)c1cc(NC(C)=O)ccc1N1CCOCC1,24.8%
19,CCCc1cc(-n2ccnc2)n2c(nc3ccccc32)c1C#N,-29.7%
20,COc1ccccc1C(=O)CSc1nccn1C,-11.1%
21,CCOC(=O)c1sc(NN=C(C(=O)OC)C(=O)OC)c(C(=O)OCC)c1C,-1.62%
22,CCN(CC)CCCN1C(=O)C(=O)/C(=C(/O)c2ccc(Cl)cc2)C1c1ccccn1 (centres unmarked),12.8%

row,Compound,"hERG current change (%, negative = inhibition) at 10uM"
1,Cc1nn(C)cc1CN(C)S(=O)(=O)c1cccc([N+](=O)[O-])c1,16.8%
2,O=C(C1CC1)N1CCN=C1SCc1cccc(C(F)(F)F)c1,-12%
3,Cc1nc(C(F)(F)F)nc(Nc2ccc(N=Nc3ccccc3)cc2)c1C#N,3.25%
4,Cc1ccc(CNC(=O)COC(=O)c2ccc(S(=O)(=O)NCc3ccco3)cc2)cc1,6.18%
5,COC(=O)c1[nH]c2ccccc2c1NC(=O)CN1CCCc2ccccc21,-29.4%
6,Cn1c(SCC(=O)NC(=O)NCc2ccccc2)nnc1C(F)(F)F,-13.7%
7,Nc1c(N2CCCCC2)c(=O)[nH]c(=O)n1-c1ccccc1,6.37%
8,CC12CCC(C)(c3nc4ccccc4nc31)C2(C)C,1.63%
9,COCc1nc2ccccc2n1Cc1cccc(C)c1,-12.8%
10,CC(=O)Oc1cccc(C(=O)Nc2ccccc2NC(=O)c2cccc(OC(C)=O)c2)c1,9.7%
11,Cc1nc(C(C)N(C)Cc2nc(Cc3ccccc3F)no2)c(C)s1 (centres unmarked),1.78%
12,CS(=O)(=O)Nc1ccccc1C(=O)NC1CC2CCC1C2 (centres unmarked),-0.846%
13,O=C(CCc1nc(-c2ccccc2Cl)no1)NC1CCCC1,15.3%
14,Cc1ccc(C(=O)N2CCN(CCNC(=O)C(=O)NC(C)C)CC2)cc1,9.12%
15,COc1ccc(/C=N\NC(=O)c2ccc(F)cc2)cc1COc1cc(F)ccc1[N+](=O)[O-],-3.68%
16,CNC(=S)N/N=C/c1cc(C)n(-c2ccc(Cl)c(Cl)c2)c1C,-11.5%
17,Cc1ccc2c(c1)C1CN(C)CCC1N2C(=S)Nc1ccc(Cl)cc1Cl (centres unmarked),-34.2%
18,CCOC(=O)N1CCN(C(=O)C(=O)Nc2sc3c(c2C#N)CC(C)(C)OC3)CC1,23.3%
19,c1ccc(-c2csc3ncnc(NCCN4CCOCC4)c23)cc1,-20.2%
20,CCOc1cc(/C=C2\C(=O)NC(=O)N(C)C2=O)cc([N+](=O)[O-])c1O,19.7%
21,COc1ccc(OCc2nc3ccccc3[nH]2)cc1,5.05%
22,CCCCn1c(N)c(N(CC(C)C)C(=O)c2cccc(-n3cnnn3)c2)c(=O)[nH]c1=O,8.41%

# — PMC4336329 (PLoS ONE, 2015)
